From the supplement of paper PMC11417369
± gives the standard deviation of the averaged measurements. Some of the results follow.

What follows are sequences tested on PfAP2-I AP2 domain 3 (GST-tagged) (assay: gcPBM binding intensity (ln(normalized median fluorescence intensity)); higher = stronger DNA binding).
Procedure, shortened: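 Binding of GST-tagged P. falciparum DNA-binding domains, expressed in E. coli and used at about 25 μg on average, was carried out for 1 h in 1× PBS containing 1% milk, 0.2 mg/ml BSA, 0.5% salmon testes DNA and 0.03% Triton X-100. The target was an Agilent 4 × 180k array of primer-extended double-stranded 36-bp intergenic genomic probes plus negative controls, read with Alexa488 anti-GST antibody at 488 nm. Binding intensity is the highest Masliner-normalised natural-log median intensity across replicate spots of either probe orientation.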

| Sequence | gcPBM binding intensity (ln) |
| --- | --- |
| TATGTTTACATATACGTGCACATGAATGTATACATT [GTGCAC_site9894] | 10.7 ± 0.29 |
| ACAAATTGTTAAAGGTGTACAATACATATATAAGAA [XGTACX_site4906] | 8.46 ± 0.56 |
| AAAAAATAAATAAATAGTACTTTAAAAGAAAAAAAA [XGTACX_site5051] | 7.62 ± 0.63 |
| AAATAAAAAATGGAAATCTTAACAAGAATCATTAAC [CACACA_negctrl_site1626] | 7.51 ± 0.57 |
| TATATACAGAATATATGTACATATTCATTTTATATT [XGTACX_site5139] | 7.5 ± 0.4 |
| AAAGAAAACCAAGTGGTGCATTTTCGTTACTTCATC | 10.2 ± 0.16 |
| CAATGTTACTATAATACACACAATATGTATTTGTCT [CACACA_site6668] | 7.82 ± 0.59 |
| CATATTTTGAACTTCACACATATATATATATATATA [CACACA_site4228] | 9.54 ± 0.71 |
| AATAATTGTTATAGTTGTACAATACATATATTACAA [XGTACX_site30] | 7.72 ± 0.6 |
| CCTTTCTATTGAAAATGTACATATATATTATTATAT [XGTACX_site5527] | 7.86 ± 0.39 |
| AATAATTGTAGACATGCACACACAAATATTATATAT [CACACA_site8181] | 8.14 ± 0.76 |
| TGTATATATAAAAATATACACACTGTATTATTGTAA [CACACA_site3757] | 7.38 ± 0.47 |
| AAATTAAAAGAAAATACACACCTGTGGGTGCTTATA [CACACA_site5143] | 9.4 ± 0.52 |
| TATTTATTCACTTATTGTACTTATATATATAATAAA [XGTACX_site6147] | 8.04 ± 0.38 |
| ATTTTTTTTTGTTTAATGTTATGTGGTCATTAAATT [CACACA_negctrl_site1177] | 7.94 ± 0.38 |
| ATATATTTTTTTTAGCGTACATGCAAAAAAAAAAAA [XGTACX_site4590] | 8.28 ± 0.67 |
| TCATAAATTAAACACACACACACATCTGGATACCCC [CACACA_site9096] | 8.19 ± 0.63 |
| TTTTGTTGTTGTTGTTGTACATAAATAATAAAATAT [XGTACX_site8681] | 8.04 ± 0.28 |
| AATTAACCGAAACACACACACATATATATATATATA [CACACA_site3963] | 9.28 ± 0.29 |
| TATACACACAGACATGCATGCACATATATATATACA [TGCATGCA_site30] | 8.56 ± 0.5 |
| TATACACTTGTAATAACACACATTATTTTTTTTTTT [CACACA_site1324] | 7.54 ± 0.67 |
| ATAAAAAATTTAAGTATTTTTTACAAACCTATAAAT [GTGCAC_negctrl_site51] | 7.38 ± 0.62 |
| TTATATTTATATGTAATACAAAATAACAAAAAATTT [CACACA_negctrl_site1721] | 7.53 ± 0.59 |

| Sequence | gcPBM binding intensity (ln) |
| --- | --- |
| TATATATATATATCCACACACATACATATATTAATA [CACACA_site69] | 9.26 ± 0.5 |
| TTGGTAATTTTAAAATGTACTTATTATATATATATA [XGTACX_site5642] | 8.94 ± 0.14 |
| TTTTTTATGATTAACACACACACAAAAAAAAAAAAA [CACACA_site4130] | 8.05 ± 0.49 |
| TCATGTAACCATTCATGTACTCAAAAAAAAAAAAAA [XGTACX_site1027] | 8.11 ± 0.71 |
| TTTTATATATATATATATATATATATATATGTATAT [CACACA_negctrl_site173] | 8.66 ± 0.17 |
| AAATGAAAGAACAGCACACATATATATTATATATAA [CACACA_site2002] | 7.8 ± 0.54 |
| AAAAAAAAAACAAATACACACGCACCCAAAAAAAAA [CACACA_site8166] | 8.7 ± 0.38 |
| AACATATTTTTTCTTAAACACACACCGATATATATA [CACACA_site8919] | 8.26 ± 0.7 |
| AATATATATTTCTAAGATAAAACCCAAGGATAAAAA [CACACA_negctrl_site735] | 7.7 ± 0.63 |
| TCTGTAAATATGTATACACACATATCTGATCAATAT [CACACA_site5743] | 8.02 ± 0.43 |
| ATTTCATTAAAGATTACATGCAATTCTATATTATTT [TGCATGCA_site260] | 7.67 ± 0.46 |
| AAAACACGCGGACACACACACACACGCCCACATATA [CACACA_site7105] | 8.34 ± 0.42 |
| AACATAAATTACTTTTTACACACTAATATAAAATAC [CACACA_site8297] | 8.04 ± 0.47 |
| AATTGCTCGATATATGCACACAGTTTTGTTATTTTT [CACACA_site8465] | 9.02 ± 0.45 |
| ACTTTCAAGGATGTACGTACATATGTATTTTATAAC [XGTACX_site6714] | 8.25 ± 0.35 |
| ATAAAAATAAAAGACGCATGTTCTTAAAATAAGAAC [TGCATGCA_site189] | 7.39 ± 0.7 |
| GTGTGATCTTTTGAAAGTACATTTTTTTTTTTTTTT [XGTACX_site6311] | 8.54 ± 0.65 |
| ATATATATATATAATGCACACATTATGAATTATGTA [CACACA_site3384] | 11.3 ± 0.26 |
| AAACAAAATGGTAACACACACATATATATATATATA [CACACA_site1939] | 9.55 ± 0.49 |
| AGGTCATACATAAAATGTACATATATATAAATATAT [XGTACX_site7147] | 7.62 ± 0.4 |
| TGAACACCCAAATACACACACTCAAAAAAAAAAAAG [CACACA_site5467] | 7.79 ± 0.37 |
| ACAAGAATACACCACGCACACACACTAGAGAAAAAA [CACACA_site9276] | 8.39 ± 0.28 |
| TAATAAAGTATTTTGCGTACTTATTTTATTCTTCTA [XGTACX_site2095] | 7.665 ± 0.035 |

| Sequence | gcPBM binding intensity (ln) |
| --- | --- |
| ATTGTGTGAACAAAATGTACATTTTCTCTACATTAA [XGTACX_site1333] | 7.91 ± 0.41 |
| TGGCATATATATAAATGTACTTTCTTTCTATCTGTT [XGTACX_site8483] | 7.51 ± 0.52 |
| GCCCCCAAATTATGTGTGCACTTTATATTCCTGAGA [GTGCAC_site9474] | 10.4 ± 0.23 |
| TTATATATATGTAATTGTACTTTTAATTTTTTTTTA [XGTACX_site4357] | 7.68 ± 0.42 |
| TATTTTATAATAGGCACACATATAAAAATATATATA [CACACA_site4127] | 7.96 ± 0.52 |
| TAATTTTTTTTAAATACACACTGAAATGTGAATTTT [CACACA_site4476] | 7.5 ± 0.47 |
| AATTTCAAATTGTATGTGCACATGTAGAAGTACTTT | 9.71 ± 0.28 |
| GTGCCTTTAAAAAAAAGTACAAAAAAGAACGAATTA [XGTACX_site3714] | 9.22 ± 0.29 |
| AAAAAAAAAAAAAGCACACACACATATGAGTATATA [CACACA_site4682] | 8.34 ± 0.35 |
| TATATATATATATATTGTACATTTTTTTTTTTTTTT [XGTACX_site7891] | 9.45 ± 0.37 |
| TATGTAAAGAGTAAGGGTACATGTATAATACGGCTC [XGTACX_site1283] | 8.28 ± 0.9 |
| TTTTCATTAAATATATATGCATACCATATGTACATT [GTGCAC_negctrl_site539] | 8.05 ± 0.58 |
| TTTAAAATATTTTCTTGTACGAAGGAACATTTCTTA [XGTACX_site4013] | 7.67 ± 0.32 |
| AAATACTATATCAAGCGTACTTATTTCATGGTAATA [XGTACX_site7878] | 7.61 ± 0.51 |
| TATTTAATTACATGAACACACATTATGTATTTTTAA [CACACA_site2962] | 7.49 ± 0.52 |
| TAAAAAAAAAAAACAAGTACATATATAAATATATAT [XGTACX_site7537] | 7.5 ± 0.45 |
| TTTTTATTTAATAATATATTAATCATATAAATAAAT [GTGCAC_negctrl_site210] | 7.6 ± 0.54 |
| TATATTCTTATTATTGCATGCTGCACGAAGATTTTC [TGCATGCA_site831] | 9.32 ± 0.2 |
| ATAATAAATAAAATAACACACATATATAGATATATA [CACACA_site6224] | 7.53 ± 0.3 |
| TTTATATAAAAAAATTGTACATATTTATTATAAACA [XGTACX_site2124] | 7.58 ± 0.27 |
| TGTATGCATATTTGATGTACGCACATATACTAATTT [XGTACX_site3159] | 8.43 ± 0.38 |
| TTTAATTATAAGATAACACACAAAAAAAATAAAATA [CACACA_site254] | 7.96 ± 0.63 |
| GTATGTTTGTTATGCACACAAATGCATCTTATTTCC [CACACA_site2690] | 10.2 ± 0.16 |

| Sequence | gcPBM binding intensity (ln) |
| --- | --- |
| ATTTCTCTATAGTAATGTACAAAAAAAAGGAAAAAG [XGTACX_site2757] | 7.84 ± 0.49 |
| CAAGAATAAAAATACAAGCACACATGTATGAAATAT [CACACA_site3214] | 7.88 ± 0.81 |
| ACATAAAATAAATATACACACATATGTATTTATTAT [CACACA_site5648] | 7.62 ± 0.53 |
| AAACCGAATTTACATGAATGTAAATTATGTTGTTTT [CACACA_negctrl_site1834] | 7.2 ± 0.65 |
| TTATGGATAAATAAATGTACGTTAAGATAACACAAA [XGTACX_site4208] | 7.59 ± 0.38 |
| ATATACATATGTGTGTGTACTTATATCACATTTTTG [XGTACX_site3785] | 7.88 ± 0.71 |
| GTTTTTTTGTTTTAGTGTACCTAAAACTGCATGTAG [XGTACX_site294] | 8.47 ± 0.64 |
| TCGACAAAGGCATATACACACATTTGTAACATAAAT [CACACA_site4471] | 7.57 ± 0.46 |
| GCAGGATTGGTTCAAACACACATATTATATGACTAT [CACACA_site660] | 7.79 ± 0.69 |
| TTTTTTTTTTTTTTTGCACACACATAATAGGTACAA [CACACA_site3578] | 9.43 ± 0.23 |
| ATCTTATATGATCACACACACACGCACAAAACAGAA [CACACA_site4913] | 8.54 ± 0.57 |
| TTAATAAATAAAAATGCACACAGTTAACATGTTGAA [CACACA_site1200] | 8.57 ± 0.29 |
| GCACATAAATATATGACACACACACCGATTATATAT [CACACA_site9003] | 7.92 ± 0.61 |
| AAAAAAAAAAAAAAAACACACAAACATCAAATTATT [CACACA_site5083] | 8.65 ± 0.42 |
| ATAATAATTTAATACATACACACGTATATCTTTTTT [CACACA_site2041] | 7.67 ± 0.83 |
| ATACAAAAAGTAAAAAGTACTTAACTAAATATATAA [XGTACX_site2335] | 7.61 ± 0.56 |
| TTTTCAATATATTAATGTACGAATACGCAAATAAGA [XGTACX_site1613] | 8.15 ± 0.35 |
| TGTGTTCATCTATGCACACGCATATATATTATTGTT [CACACA_site5985] | 8.8 ± 0.057 |
| TAATCGAAACAAAGAACATGCAAACATATACCTATA [TGCATGCA_site894] | 7.51 ± 0.54 |
| CAAAATTTATGTAAAAGTACAAAAATATAGAAAGAT [XGTACX_site1122] | 8.14 ± 0.59 |
